# Data: PubChem BioAssay AID1963576 (National Center for Advancing Translational Sciences (NCATS), 2024)
# The whole screen tested about 46,000 compounds, of which about 60 (0.1%) were called active. The shares of active, inactive and inconclusive entries below differ from those in the screen. The call rests on the fitted dose curve; in most records, active means well fitted inhibition curve with a large enough effect; inconclusive means small, poorly fitted or top-dose-only effect; inactive means no such curve, though single readings can be large or run the other way. No potency is given beside an inconclusive call; the fits are too rough.
# Experiment: Primary qHTS assay for Inhibitors of ovarian cancer metastasis using an organotypic tumor microenvironment (TME) model. Further: nearly all actives have a fitted effect of over 65% in size.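 On potency: count of GFP cancer cells still attached after washing and fixation.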
# Settings: SKOV3ip1-GFP adhesion/invasion on 3D omental model, fluorescence; series mostly up to 45.8 µM
# Method in brief: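 Adhesion/invasion was scored as fixed GFP-labeled SKOV3ip1 cell counts (488/509 nm), normalized to DMSO and tomatine controls. Cancer cells in serum-free medium, with four compound doses (0.36-46 umol/L), sat 2 hr at RT then 16 hr at 37 C on a 48 hr fibroblast/mesothelial/ECM culture.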
# Potency means the concentration at half of the fitted maximal effect; tags describe the fitted curve by direction and shape.
row,SMILES,Potency
1,Cc1ccc(C(=O)Nc2ccc(CN3CCN(C)CC3)c(C(F)(F)F)c2)cc1C#Cc1cnc2cccnn12,"inconclusive [inhibitor, single point]"
2,COc1ccccc1C(=O)Nc1cc2c(cc1N1CCCCC1)n(C)c(=O)n2C,"inconclusive [inhibitor, single point]"
3,O=C1CN(C(=O)Nc2ccccc2C(F)(F)F)C(c2ccccc2)c2c(sc3c2CCCC3)N1 (stereo not given),"inconclusive [inhibitor, single point]"
4,CCOC(=O)c1c(C)n(-c2ccccc2)c2ccc(OC(=O)c3ccccc3NC(=O)C(C)(C)C)cc12,"inconclusive [inhibitor, single point]"
5,Cc1ccc(OCC(O)Cn2c(=N)n(CCN3CCCCC3)c3ccccc32)cc1 (stereo not given),active: 8.91 µM
6,Cc1ccccc1Cn1c(CN2CCC(C(=O)NCCN(C)C)CC2)cc2ccccc21,"inconclusive [inhibitor, full curve, poor fit]"
7,CCOC(=O)C1CCN(S(=O)(=O)c2cc(Br)cc3c2N(C(=O)CC)CC3)CC1,inactive
8,O=C(Cn1c(SCC(=O)Nc2ccc(F)cc2)nc2ccccc21)NCc1ccc(F)cc1,"inconclusive [inhibitor, single point]"
9,CCN1CCN(c2ncc3c(n2)CCN(Cc2cc(F)cc(F)c2)C3)CC1,"inconclusive [inhibitor, single point]"
10,CCN(CCCNC(=O)c1ccc(Sc2ccc(Cl)cc2)c(NC(C)=O)c1)c1ccccc1,"inconclusive [inhibitor, single point]"
11,CC(CNC(=O)c1cnn(-c2ccc(F)cc2)c1-n1cccc1)c1ccccc1 (stereo not given),inactive
12,Cc1cccc2nc(-c3ccccn3)c(Nc3ccc(F)cc3)n12,"inconclusive [inhibitor, single point]"
13,COc1ccc(C2CC(=O)N(Cc3ccc(C)cc3)c3c2c(C)nn3-c2nc(C)cc(C)n2)c(OC)c1 (stereo not given),inactive
14,COc1ccc(-c2nc3c(c(SCc4ccc(Br)cc4)n2)Cc2c(CO)cnc(C)c2O3)cc1,inactive
15,CC[C@@H](C)[C@H](NC(=O)[C@H](CC1CCCCC1)NC(=O)c1ccno1)C(=O)N1CCC2(CCc3ccccc32)CC1,inactive
16,COc1ccc(CNC(=O)c2cc(-c3ccc(Br)s3)nc3ccccc23)cc1,inactive
17,Cc1ccc(OCCn2c(C3CC(=O)N(Cc4ccc(F)cc4)C3)nc3ccccc32)c(C)c1 (stereo not given),"inconclusive [inhibitor, single point]"
18,COc1ccc(OCC(=O)NCc2ccc3c(c2)CCN3C(=O)c2cccc(C)c2)cc1,"inconclusive [inhibitor, single point]"
19,COc1ccc(C(=O)CC2(O)C(=O)Nc3c(Cl)ccc(Cl)c32)cc1 (stereo not given),inactive
20,COc1ccc(N2CCN(C(=O)C(CC(C)C)NS(=O)(=O)c3ccc4nc(C)sc4c3)CC2)cc1 (stereo not given),"inconclusive [inhibitor, full curve, poor fit]"

row,SMILES,Potency
1,OCCCNc1cc(-c2ccnc(Nc3cccc(Cl)c3)n2)ccn1,"inconclusive [inhibitor, partial curve, poor fit]"
2,CCOc1ccc(NC(=O)c2nc(S(=O)(=O)Cc3ccccc3F)ncc2Cl)cc1,"inconclusive [inhibitor, full curve, poor fit]"
3,CC(=O)NCCNC(=O)CCCc1nnc2n(CC(C)C)c(=O)c3sccc3n12,"inconclusive [inhibitor, single point]"
4,O=C(NCCCN1CCN(c2ccccc2F)CC1)c1ccc2nc(CCc3ccccc3)oc2c1,"inconclusive [inhibitor, single point]"
5,O=C(Cn1c(-c2cccs2)cc2cc(F)ccc21)NCCc1ccc(Cl)cc1,"inconclusive [inhibitor, single point]"
6,CCN1CCN(CCCNC(=O)Cn2c(-c3cccs3)cc3cc(Cl)ccc32)CC1,"inconclusive [inhibitor, single point]"
7,CCc1ccc(NC(=O)C(=O)NCC(c2ccc3c(c2)OCO3)N2CCN(C)CC2)cc1 (stereo not given),"inconclusive [inhibitor, single point]"
8,O=C(Nc1cc(Cl)cc(Cl)c1)c1cc(S(=O)(=O)NC2CCCC2)ccc1F,"inconclusive [inhibitor, partial curve, poor fit]"
9,CC1=C(C(=O)OC2CCCC2)C(c2c(F)cccc2Cl)CC(=O)N1 (stereo not given),"inconclusive [inhibitor, partial curve, poor fit]"
10,CC(=O)c1ccc(NC(=O)C2CCN(S(=O)(=O)c3ccc4[nH]c5c(c4c3)CCCCC5)CC2)cc1,"inconclusive [inhibitor, single point]"
11,CCc1ccc(CNC(=O)C2CCN(c3nn4cc(-c5ccc(OC)cc5)nc4s3)CC2)cc1,inactive
12,O=C(CSc1n[nH]c(-c2ccc(F)cc2)n1)N1CCN(c2ccc(F)cc2)CC1,"inconclusive [inhibitor, single point]"
13,COc1cc2nc(Nc3cccc(F)c3)nc(N)c2cc1OC,"inconclusive [inhibitor, single point]"
14,CC1CCCN(C(=O)c2cc3ccc4cccnc4c3[nH]2)C1 (stereo not given),inactive
15,Cc1ccccc1Oc1nc2ccccn2c(=O)c1/C=C(\C#N)c1nc2ccccc2[nH]1,inactive
16,COc1ccc(OC)c(CCNC(=O)c2cc3c(s2)-c2c(C)cccc2OC3)c1,"inconclusive [inhibitor, single point]"
17,COC(=O)c1ccc(Cl)cc1NC(=O)Nc1nnc(N2CCCC2)s1,"inconclusive [inhibitor, single point]"
18,Cn1ncc2c(Nc3cc(C(F)(F)F)ccc3Cl)ncnc21,inactive
19,O=C(NNC(=O)c1ccc(CNS(=O)(=O)c2ccc(F)c(Cl)c2)cc1)c1ccccc1,inactive
20,CC(C)(C)C(=O)Nc1ccc(-c2nc3ccc(NC(=O)C(C)(C)C)cc3[nH]2)cc1,"inconclusive [inhibitor, full curve]"
